Here are results for 72 sequences from the supplement of paper PMC10338343.

± gives the standard deviation. The full ranking holds about 5,500 sequences; the median of “pre-steady-state target cleavage rate” is about 0.1, and the highest 2% start at about 0.64. Only a part is listed here, and it is no random draw.

This experiment relates to MIWI (PIWIL1) piRISC loaded with piRNA #2 (30 nt). The experiment can be described thus: pre-steady-state target cleavage rate (min^-1); MIWI and MILI are mouse PIWI proteins and EfPiwi is from a freshwater sponge; tags in brackets are library labels; higher = faster piRNA-guided slicing of the target. To be noted: guide: piRNA #2 5'p-UUAGGUAACCCAGUAGAUCCAGAGGAAUUC; auxiliary factor: 500 nM mouse GTSF1. As to the method:
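Cleave-'n-Seq: a library of target RNAs (target site embedded in constant flanks, ACAGCATTCCGCGTTAGTGATATCCG... 5' flank; DNA-blocked outside the site) at 0.1 nM was incubated with 1 nM active mouse MILI or MIWI piRISC (synthetic 5'-monophosphorylated piRNA guide) with or without 500 nM mouse GTSF1 at 33 °C for 1 min to 16 h. Uncleaved targets were sequenced and normalised to non-target controls, and the pooled three trials were fitted to a burst-and-steady-state model to give the pre-steady-state cleavage rate (min^-1; k3 is constrained to at most 1e-4). Sequence is the target site only; target names encode pairing extent (gX:gY) and contiguous / 1-mismatch / 2-mismatch / bulge geometry. Fits with R² ≤ 0 are excluded.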
As to CUUAUCCUCUGGAUCUACAGGGUUACGUAA, the “pre-steady-state target cleavage rate” value is 0.264 ± 0.024.
For GAAUUCGACUGGAUCUACUGGGUUACCUAA the value was 0.249 ± 0.039; for CUUAACCUCUGUAUCUACUGGGUUACCUAA, 0.347 ± 0.035; for CUUAAGCUCUGGAUCUAGUGGGUUACCUUA, 0.0301 ± 0.0077.
Next, CUUAAGGACUGGUUCUACUGGCUUACCUAA: 0.0222 ± 0.021; GAAUUCCUCUGGAUCUACUGGGUUAUCUAA: 0.504 ± 0.059.
For the sequence GAAUUCGUCUGGAUCUACUCGGUUACCUAA, the “pre-steady-state target cleavage rate” value stood at 0.043 ± 0.021.
Next, GAAUGUCCUCUGGAUCUACUGGGUUACCUAA: 0.0571 ± 0.028.
For CUUAUCCUCUGCAUCUACUGGGAUACCUAA the value was 0.124 ± 0.017; for CAUUUCCUGUGGAUCUACUGGGUUACCUAA, 0.4 ± 0.042.
For CUUAAGCUCUGGAUAUACUGGGUUACCUAA the value was 0.223 ± 0.02; for CUAUUCCUCUGGAUCUACUGGGUUACCUCAA, 0.392 ± 0.06.
CUUAAGGUCUGCAUCUACUGGGUUACCUAA: the “pre-steady-state target cleavage rate” value is 0.183 ± 0.027.
For CUUAACCUCUGGAUCUUCUGGGAUACCUAA the value was 0.0792 ± 0.0094.
Next, CUUAAGGUGUGGAUCUACUGGGUAACCUAA: 0.0163 ± 0.0095; CAAUUGCUCUGGUUCUACUGGGUUACCUAA: 0.466 ± 0.038; GAAUUGCUCUGGAUCUAGUGGGUUACCUAA: 0.0184 ± 0.0082.
Next, CUUUUCCUCGGGAUCUACUGGGUUACCUAA: 0.306 ± 0.071.
In the case of CUUAAGCUCUGGUUCUACUGGGUAACCUAA, the “pre-steady-state target cleavage rate” value was determined as 0.0353 ± 0.0063.
For CUUAACUCUGGAUCUACUGGGUUACCUAA the value was 0.0611 ± 0.012; for GAAUUCCUCUGCAUCUACUCGGUUACCUAA, 0.0997 ± 0.014; for CAAUUCCUCUGGAUCUACUGGAUUACCUAA, 0.338 ± 0.052.
Next, CUAUUCCUCUGGAUCUACUGGUUUACCUAA: 0.245 ± 0.026.
Next, GAAUACCUCUGGAUCUACUGGGUUACCUAA: 0.25 ± 0.049.
Turning to GAAUUCCUAUGGAUCUACUGGGUUACCUAA, the “pre-steady-state target cleavage rate” value worked out at 0.401 ± 0.036.
Next, CUUUUCCUCUGGAUCUACUGGUUUACCUAA: 0.237 ± 0.018; CUUAACGUCUGGAUCUACUCGGUUACCUAA: 0.0453 ± 0.018; CUUAACCUCUGGAUCUUCUGCGUUACCUAA: 0.165 ± 0.02.
Next, CUUAAGGUCUGGAUCUACUAGGUUACCUAA: 0.111 ± 0.013; CUUAAGCUCUGGAUCUUCUGCGUUACCUAA: 0.0806 ± 0.019.
For CUAUUCCUCUGGAUCUACUGGCAUACCUAA the value was 0.00657 ± 0.0034.
As for “GAAUUCCUCUGGAUCUACUGGGUAUGGAUA [g8:g30:cont:t1A]”, the “pre-steady-state target cleavage rate” value is 0.0139 ± 0.0067.
For CUUAACCUCUGGAUCUACUAGGGUUACCUAA the value was 0.00445 ± 0.0037; for CUUAAGGAGACCUAGAUGAGGCGUUACCUAA, 0.00494 ± 0.0017.
For the sequence CUUAAGGUCUGAUCUACUGGGUUACCUAA, the “pre-steady-state target cleavage rate” value came out at 0.0176 ± 0.0042.
For CUUAUCCUCUGGAUCUACUGGGUUACCUGA the value was 0.484 ± 0.14; for CUUAAGCACUGGAUCUACUGGGUUACCUUA, 0.16 ± 0.016; for CUUAAGCUCUGGAUCUACUGGGUUAGCUAA, 0.229 ± 0.026.
As to CUUUUCCUCUGGAUGUACUGGGUUACCUUA, the “pre-steady-state target cleavage rate” value was 0.365 ± 0.033.
Next, CUUAACCUCUGGAUCUACAGGCUUACCUAA: 0.0258 ± 0.0056.
Next, CUUAAGGUCUGGAUCUACAGGGUUACCUUA: 0.0564 ± 0.011.
For GAAUUGCUCUGGAUCAACUGGGUUACCUAA the value was 0.0588 ± 0.021.
CUUAACCUCUCGAUCUACUGGGUUACCUAA: the “pre-steady-state target cleavage rate” value was 0.429 ± 0.037.
For CUAUUCCUCAGGAUCUACUGGGAUACCUAA the value was 0.37 ± 0.041.
CUUAAGGUGUGGAUCUACUGGGAUACCUAA: the “pre-steady-state target cleavage rate” value came to 0.0259 ± 0.0087.
For CUUAACCUCAGGAUCUACUGGGAUACCUAA the value was 0.261 ± 0.036; for CAAUUCCUCAGGAUCUACUGGGUUUCCUAA, 0.505 ± 0.065; for CUAUUCCUCUGGAUCUACUGGGUUCACCUAA, 0.391 ± 0.05.
For CUAUUCCACUGGUUCUACUGGGUUACCUAA the value was 0.482 ± 0.034.
Next, CAAUUCCUCUGGAUCUACUGGGUUACGAUA: 0.24 ± 0.058; GAAUUCCUCUGGAUGCUACUGGGUUACCUAA: 0.301 ± 0.041.
For CUUAAGCUCAGGAUCUACUGGGUUACCUAA, the “pre-steady-state target cleavage rate” value worked out at 0.349 ± 0.037.
Take CUAUUCCUCAGGAUCAACUGGGUUACCUAA: the “pre-steady-state target cleavage rate” value was determined as 0.48 ± 0.043.
Next, CUUAAGCUACUGGAUCUACUGGGUUACCUAA: 0.157 ± 0.02; CUAUUGCUCUGGUUCUACUGGGUUACCUAA: 0.426 ± 0.036.
For the sequence CUUAAGGACUGGUUGUACUGGGUUACCUAA, the “pre-steady-state target cleavage rate” value amounted to 0.0213 ± 0.02.
For CUUUUCCUCUCGAUCUACAGGGUUACCUAA the value was 0.371 ± 0.024; for CUUAAGGACUGGAUCUACUGGGUUAUCCUAA, 0.113 ± 0.053; for CUUAAGGAGUGGUACUACUGGGUUACCUAA, 0.00729 ± 0.0052.
For CUUAAGCACUGGAUCUACUGCGUUACCUAA the value was 0.368 ± 0.045; for CUUAAGGACUGGAUCUAGUGGGUUAGCUAA, 0.0132 ± 0.0072.
For CUAUUCCUGAGGAUCUACUGGGUUACCUAA the value was 0.3 ± 0.032; for CUUAACCUCAGGAUCUACAGGGUUACCUAA, 0.234 ± 0.03; for CUUAAGGUCUGGAUCUACUGGGUUACCCUAA, 0.0686 ± 0.018.
As to CUUUUCCUCUGGAUCAUACUGGGUUACCUAA, the “pre-steady-state target cleavage rate” value was found to be 0.0109 ± 0.0056.
Next, CUUAAGCUCUGGAUCUACUGGGUUCCCUAA: 0.0651 ± 0.013; CUUAAGCUCUGGAUCUACUGGGUUACCCUAA: 0.0176 ± 0.0077.
Next, CUUAAGGACUGGAUCUACUGGGUUAGCUAA: 0.0719 ± 0.034.
Next, CUUAAGCUCUGGAUCUACUGGGUAACGUAA: 0.146 ± 0.023; CUUAAGCUCUGGUUCUACUGGGUUACGUAA: 0.333 ± 0.022; CUUUUGCUGUGGAUCUACUGGGUUACCUAA: 0.237 ± 0.041.
For the sequence CUUAAGGAGUGGACCUACUGGGUUACCUAA, the “pre-steady-state target cleavage rate” value stood at 0.137 ± 0.018.
